Measured values reported in the antibiotic and cytotoxicity screens of Wong et al. (2023).
The other results are listed elsewhere or left out.

How the values were obtained:
HSkMC = human skeletal muscle cells; test: cytotoxicity call (relative viability < 0.9); settings: 10 µM
HepG2 = test: cytotoxicity call (relative viability < 0.9); settings: 10 µM
S. aureus RN4220 = test: growth inhibition call (relative growth <= 0.2); settings: 50 µM

| SMILES | cytotoxicity call (HSkMC) | cytotoxicity call (HepG2) | growth inhibition call (S. aureus RN4220) |
| --- | --- | --- | --- |
| CO[C@@H]1CN(C)C(=O)c2cc(NC(=O)Nc3ccc(Cl)cc3)ccc2OC[C@H](C)N(C(=O)Nc2c(C)noc2C)C[C@H]1C | inactive | inactive | inactive |
| COc1ccc(NC(=O)N(C)C[C@@H]2OCc3ccccc3-c3c(n(C)c4ccccc34)C(=O)N([C@@H](C)CO)C[C@@H]2C)c(OC)c1 | inactive | inactive | inactive |
| COc1ccc(S(=O)(=O)Nc2ccc3c(c2)C(=O)N([C@@H](C)CO)C[C@H](C)[C@H](CN(C)S(C)(=O)=O)O3)cc1 | inactive | inactive | inactive |
| CC1(C)OC(=O)C2(C(=O)O1)[C@@H](c1ccc(-c3ccc(C(F)(F)F)cc3)cc1)CC(=O)C[C@H]2c1ccccc1 | inactive | inactive | inactive |
| C=CCOC(=O)[C@@H]1[C@H]2C(=O)O[C@H](c3ccccc3)[C@H](c3ccccc3)N2[C@H](c2ccc(OCCOC(=O)[C@H]3C[C@H]4C(=O)N[C@@H](CC(C)C)C(=O)N4[C@H]3c3cccc(OCCO)c3)cc2)[C@@]12C(=O)Nc1ccc(I)cc12 | inactive | inactive | inactive |
| C[C@@H]1CN([C@@H](C)CO)C(=O)c2cccc(NC(=O)c3ccncc3)c2O[C@H]1CN(C)S(=O)(=O)c1ccccc1 | inactive | inactive | inactive |
| C[C@@H]1CCCCO[C@H](CN(C)C(=O)Cc2ccccc2)[C@@H](C)CN([C@@H](C)CO)C(=O)c2cc(NC(=O)Nc3ccc(F)cc3)ccc2O1 | inactive | inactive | inactive |
| C[C@@H]1CN([C@H](C)CO)C(=O)c2cccc(NC(=O)Nc3ccc(C(F)(F)F)cc3)c2O[C@H]1CN(C)Cc1ccncc1 | inactive | inactive | inactive |
| Cc1cccc(S(=O)(=O)N2C[C@H](O)COC[C@H]3O[C@@H](CC(=O)NCCCN4CCOCC4)CC[C@@H]32)c1 | inactive | inactive | inactive |
| CC(C)NC(=O)N(C)C[C@@H]1Oc2ccc(NC(=O)C3CCCCC3)cc2CC(=O)N([C@H](C)CO)C[C@@H]1C | inactive | inactive | inactive |
| CCS(=O)(=O)NCC[C@H]1CC[C@H](NC(=O)Cc2ccccn2)[C@@H](CO)O1 | inactive | inactive | inactive |
| C[C@@H]1CCCCO[C@@H](CN(C)Cc2ccc3c(c2)OCO3)[C@H](C)CN([C@@H](C)CO)C(=O)c2cc(NC(=O)Nc3ccccc3)ccc2O1 | inactive | inactive | inactive |
| Cc1noc(C)c1S(=O)(=O)Nc1ccc2c(c1)CC(=O)N([C@H](C)CO)C[C@H](C)[C@H](CN(C)Cc1ccc(C(=O)O)cc1)O2 | inactive | inactive | inactive |
| C[C@H]1CCCCO[C@@H](CN(C)C(=O)c2ccccc2)[C@@H](C)CN([C@@H](C)CO)C(=O)c2cc(NC(=O)C3CCCCC3)ccc2O1 | inactive | inactive | inactive |
| NS(=O)(=O)c1ncn(Cc2ccccc2)n1 | inactive | inactive | inactive |
| Cc1noc(C)c1S(=O)(=O)N(C)C[C@@H]1Oc2ccc(NC(=O)CCC(F)(F)F)cc2CC(=O)N([C@H](C)CO)C[C@H]1C | inactive | inactive | inactive |
| O=C(C[C@@H]1CC[C@@H]2[C@H](COC[C@H](O)CN2C(=O)Nc2cccc(F)c2)O1)NCCCN1CCOCC1 | inactive | inactive | inactive |
| O=C(C[C@@H]1CC[C@H]2NC[C@@H](O)COC[C@@H]2O1)NCCN1CCCCC1 | inactive | inactive | inactive |
| COc1ccccc1S(=O)(=O)N[C@@H]1CC[C@@H](CCNC(=O)C2CCOCC2)O[C@H]1CO | inactive | inactive | inactive |
| C[C@H]1CN([C@@H](C)CO)C(=O)c2cc(NC(=O)C3CC3)ccc2O[C@@H]1CN(C)S(=O)(=O)c1cccs1 | inactive | inactive | inactive |
| O=C(N[C@@H]1CC[C@@H](CC(=O)N2CCOCC2)O[C@@H]1CO)c1ccccn1 | inactive | inactive | inactive |
| CC1(C)CCC(c2ccc(Cl)cc2)=C(CN2CCN(c3ccc(C(=O)NS(=O)(=O)c4ccc(N[C@H](CCN5CCOCC5)CSc5ccccc5)c(S(=O)(=O)C(F)(F)F)c4)cc3)CC2)C1 | active | active | inactive |
| C[C@@H]1CN([C@@H](C)CO)C(=O)Cc2cc(NC(=O)Cc3ccccc3)ccc2O[C@H]1CN(C)S(=O)(=O)c1ccc(F)cc1 | inactive | inactive | inactive |
| Cc1noc(C)c1NC(=O)N(C)C[C@H]1Oc2ccc(NC(=O)CCN3CCOCC3)cc2C(=O)N([C@@H](C)CO)C[C@H]1C | inactive | inactive | inactive |
| C[C@H](O)C#Cc1ccc2c(c1)O[C@H](CN(C)C(=O)Cc1ccccn1)[C@@H](C)CN([C@H](C)CO)S2(=O)=O | inactive | inactive | inactive |
| Cc1noc(C)c1S(=O)(=O)N(C)C[C@@H]1OCCCC[C@H](C)Oc2ccc(NC(=O)Nc3ccccc3)cc2C(=O)N([C@H](C)CO)C[C@H]1C | active | active | inactive |
| C[C@H](CO)N1C[C@H](C)[C@H](CN(C)C(=O)C2CCCCC2)OCCCC[C@H](C)Oc2ccc(NC(=O)NC3CCCCC3)cc2C1=O | inactive | active | inactive |
